# Assay results published in the supplement of paper PMC3334620.
# The full ranking holds about 33,000 sequences; the median of “E-score (-0.5 to 0.5)” is about -0.054, and the highest 2% start at about 0.35. The list shows a part of the results.
# Biological target: T1, Stb5 (UniProt P38699)
# T1 sequence: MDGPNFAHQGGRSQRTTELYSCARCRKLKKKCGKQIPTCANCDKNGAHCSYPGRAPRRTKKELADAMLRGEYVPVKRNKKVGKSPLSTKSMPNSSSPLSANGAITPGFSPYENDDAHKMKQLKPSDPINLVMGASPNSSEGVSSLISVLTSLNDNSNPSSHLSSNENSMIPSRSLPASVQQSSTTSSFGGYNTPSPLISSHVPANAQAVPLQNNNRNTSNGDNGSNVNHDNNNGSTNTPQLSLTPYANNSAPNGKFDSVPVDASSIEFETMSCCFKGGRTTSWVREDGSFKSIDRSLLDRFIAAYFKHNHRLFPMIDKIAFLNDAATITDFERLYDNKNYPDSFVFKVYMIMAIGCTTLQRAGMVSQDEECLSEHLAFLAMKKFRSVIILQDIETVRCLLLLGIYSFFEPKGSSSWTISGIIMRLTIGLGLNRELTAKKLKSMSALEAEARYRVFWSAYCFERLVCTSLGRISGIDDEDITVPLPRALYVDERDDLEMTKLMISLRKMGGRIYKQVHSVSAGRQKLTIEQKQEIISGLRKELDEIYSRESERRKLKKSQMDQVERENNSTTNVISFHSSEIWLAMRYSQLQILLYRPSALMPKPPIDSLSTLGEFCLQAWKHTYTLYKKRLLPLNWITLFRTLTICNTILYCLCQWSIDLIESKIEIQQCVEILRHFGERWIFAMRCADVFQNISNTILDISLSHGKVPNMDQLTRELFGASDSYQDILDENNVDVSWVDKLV
# Assay: PBM E-score (8-mer binding enrichment) (E-score (-0.5 to 0.5)); higher = stronger / more preferred TF binding; most listed sequences are background and not binding sites
# Details: protein concentration: 200 nM; construct: GST-full length
# How it was run: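 E-scores (a modified Wilcoxon-Mann-Whitney statistic) were assigned by the Universal PBM Analysis Suite to every ungapped eight-base word pooled with its reverse complement. The input came from universal all-10-mer Agilent arrays made double-stranded by primer extension and probed with GST-tagged yeast transcription factors at about 100-200 nM. Fluorescent anti-GST detected bound protein, and masliner normalised the scans.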
row,Sequence,PBM E-score
1,TACACTCA,-0.284
2,GGGGCGGA,0.293
3,AGAGCCTG,-0.307
4,GCAATGCA,-0.0992
5,ACTGGTTG,-0.0594
6,GAAAATGC,-0.14
7,AGTCAGAC,-0.126
8,ATCAACGG,0.203
9,CCTATCAG,-0.131
10,CAGATACC,-0.0513
11,AGCCGATC,0.0924
12,AACCCCTA,0.0625
13,GCCAGCGC,-0.00309
14,ACAATTAC,-0.226
15,TCTAAGAA,0.0218
16,ACTCGTAG,-0.234
17,AGACCGCG,0.297
18,GCCGGGCA,0.236
19,AGAGATAG,-0.105
20,ATACTTGA,-0.181
21,AAGGTACG,-0.0362
22,ACTTTGGG,-0.0994
23,GTGAATGA,0.0669
24,CAGACTGC,-0.228
25,CCCTTGAA,-0.0496

row,Sequence,PBM E-score
1,ATCCACCG,0.219
2,ACCGCTAT,0.33
3,TAAGGAGA,-0.00153
4,ATTTGTGC,-0.0961
5,CCACCTGG,-0.266
6,CGTGGTAA,-0.172
7,ATGTTTCG,-0.0593
8,AGTCTTAC,-0.185
9,ACGTCCGA,0.333
10,AGCTTGCA,-0.0865
11,AAGTTTGA,-0.112
12,CACGAGCC,-0.141
13,AATCGTGT,0.116
14,AAGATGTC,-0.0504
15,AAGCACAT,-0.0767
16,CTTTCCAA,0.0736
17,AACTCGGA,0.166
18,AGACGTCA,-0.2
19,CATGGTGG,-0.116
20,GCAGACCC,-0.0859
21,CGTATTCC,0.0717
22,AGTCCATA,-0.172
23,AATCTTAC,0.065
24,CGGCAGCC,0.0878
25,GATCCGAC,0.23

row,Sequence,PBM E-score
1,ACTCGGCT,-0.161
2,CTCCAGGC,-0.0397
3,CTTGCGGC,0.14
4,AATCCCGG,0.352
5,GGCAGCAA,-0.00028
6,CTTCTGCA,0.0835
7,GCGAACGA,-0.206
8,ATGCGACA,-0.026
9,ACACCCTC,-0.162
10,GGCCGGCC,0.15
11,ACAATTTA,-0.148
12,AACGCACG,0.0412
13,TCACACAA,-0.366
14,GAATCTGA,-0.0628
15,ACAGGGAG,-0.0371
16,GGCTGTCA,-0.228
17,CCGAACTC,0.0675
18,AGTGCAGG,-0.176
19,AGATACCA,-0.0825
20,CCATGTAA,0.0972
21,ACTCTCAT,-0.155
22,AGCGGAAA,0.152
23,ATACCTTA,0.00381
24,TAAGGCAA,-0.133
25,AGTGTTAG,-0.243

row,Sequence,PBM E-score
1,TCAGGCCA,-0.064
2,CCACGGCA,0.151
3,AGTCATTG,-0.27
4,AGAGATTA,-0.226
5,ACCCGACG,0.287
6,GCGCCTAA,0.0692
7,ACTAACCA,-0.168
8,CATAGGAG,-0.203
9,CACCGAAA,0.305
10,ATCTGCGG,0.257
11,ACCAATTG,-0.147
12,CTCACAGC,-0.053
13,AGAACCGG,0.337
14,ATCCCCAG,-0.132
15,ACGCCTCC,-0.0993
16,AAATCCTA,0.0685
17,ACTGAAGA,-0.0507
18,AGGGGGAG,-0.185
19,AGCCGTTG,-0.044
20,CCCGGCGC,0.231
21,CCGTTGCC,0.221
22,ATCTGAAT,-0.103
23,AAAGTTTC,-0.23
24,GGCAATGA,-0.223
25,CAGGTGAG,-0.302

row,Sequence,PBM E-score
1,GAGTCGCA,-0.194
2,GGCCCCAC,-0.111
3,CTGACTTC,0.00183
4,CACGCTGG,-0.14
5,CAAGTACA,-0.12
6,CATCAGGG,-0.278
7,AGCAACCG,0.0278
8,CCGATCCA,0.181
9,AATCGGCC,0.234
10,GGTGATTA,0.285
11,AACGGGCT,0.238
12,ACCCTCCA,-0.252
13,AACTTGCG,0.116
14,ATCAGACA,-0.121
15,CTAGTTAC,-0.0323
16,GTACATTA,-0.0599
17,AAGGATTA,-0.202
18,AGGTTGAC,-0.0996
19,CTAATAAG,-0.149
20,ACCTGCAT,-0.0696
21,ATCCTCAT,-0.308
22,GGTCCGCA,0.191
23,AGGCAGTC,-0.149
24,CCTTCTCC,-0.235
25,CCAACGTC,-0.0945

row,Sequence,PBM E-score
1,AACGAAGC,-0.141
2,CGACACGA,0.112
3,CTCAATTA,-0.146
4,ACTAGCAT,-0.237
5,CAGACGGA,0.297
6,ACATATTC,-0.192
7,AAACCTGT,-0.166
8,AAGGCATG,-0.275
9,AGGCGTAA,-0.14
10,CGCATACC,0.199
11,GTAGCATA,-0.00706
12,TTAAAAAA,-0.124
13,CGAGCGAG,-0.0911
14,GTAAGGAA,-0.242
15,CGTAATAC,0.172
16,CCGCTGGA,0.233
17,ACCCCGTG,0.367
18,ATTATTCG,0.0321
19,ATAAACAA,-0.0366
20,CTCATGAA,-0.0191
21,AGTTTGTG,-0.0549
22,CTCCTTCA,-0.187
23,CAGGGGCA,-0.2
24,AGGGATAT,-0.0936
25,GTCAAACA,-0.0353

row,Sequence,PBM E-score
1,CCCATGGC,-0.0738
2,GCGTAACA,0.0736
3,AATTTGCA,-0.18
4,CCGTATCC,0.196
5,CATGTGCC,-0.177
6,GTCCCGTA,0.101
7,ATCCACGG,0.233
8,CACACTAC,-0.137
9,AATTTAAC,0.121
10,GGCACTAC,0.32
11,CGATTTAG,0.0345
12,GCGCTAAA,0.114
13,GTTCGTTA,-0.16
14,AAGTCGGT,0.324
15,CGGTTGAG,0.0856
16,ATGTGCGG,0.143
17,ACTATTCC,0.155
18,GGTACTGA,0.0384
19,GAGTCGCC,-0.0341
20,ACCTTGCC,-0.0476
21,ACGCCAAC,0.0115
22,GGCCGAGA,0.0406
